The list shows a part of the results.

The values that follow come from paper PMC7819943, “Rice protein-binding microarrays: a tool to detect cis-acting elements near promoter regions in rice”.

The target in the test is T1, OsWOX13 (Oryza sativa, UniProt Q5QMM3 1-267).
T1 sequence: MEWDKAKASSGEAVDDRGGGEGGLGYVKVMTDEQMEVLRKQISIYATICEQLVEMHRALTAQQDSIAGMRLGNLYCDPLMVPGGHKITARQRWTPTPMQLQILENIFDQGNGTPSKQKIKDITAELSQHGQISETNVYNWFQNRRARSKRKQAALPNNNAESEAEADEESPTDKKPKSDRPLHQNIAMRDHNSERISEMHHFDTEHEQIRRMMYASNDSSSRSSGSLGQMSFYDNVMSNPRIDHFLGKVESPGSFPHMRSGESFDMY
Description: protein-binding microarray (RPBM); PBS, 2% BSA, 51.3 ng/ul salmon testes DNA, 50 uM zinc acetate, 200 nM TF, 25 C, 1 h; high values mean tight binding. The following applies: protein: recombinant; tags: N-terminal polyhistidine and DsRed monomer fusion (pET32a); label: CyDye5-dUTP incorporated in the synthesized complementary strand; 3' TTTTT single-stranded linker to array surface; dsDNA, one strand shown. Summed up:
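The binding signal for each feature is its fluorescence intensity in arbitrary units. An Axon 4000B scanner was used to read a custom Agilent array that had been made double-stranded with Cy5-dUTP primer extension, blocked with 2% BSA, incubated at 25 °C for 1 h with 200 nM protein in PBS, 2% BSA, salmon testes DNA and 50 µM zinc acetate, and washed. The protein was an N-terminal polyhistidine–DsRed transcription factor fusion from E. coli BL21-CodonPlus, purified on Ni–NTA.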
Regarding “AAGATTGCCAGTTGATATGCGGGGTCTACATGGGTCCCACCGGAGTCACCTAGTGCAG”, the binding signal was 19200 fluorescence intensity (a.u.).

For “GGTTAATTTATTTTGAGACAGATGGAGTAACTCAATGAGCCGGAGTCACCTAGTGCAG”, the binding signal was 41300 fluorescence intensity (a.u.).

On to “ATAACGAACGGATGAGATTGATCGCTACAATACTCTAGAGCGGAGTCACCTAGTGCAG”, for which the binding signal was 4050 fluorescence intensity (a.u.).

For the sequence “GGAGAGTGATTTAAATCTGAAAAGAAGTAAGATCTCTTTCCGGAGTCACCTAGTGCAG”, the binding signal was 8610 fluorescence intensity (a.u.).

In the case of “GGCTGATTGTGTAATAAAGCCCCGTCTGCAGGCGGCGGACCGGAGTCACCTAGTGCAG”, the binding signal is 34500 fluorescence intensity (a.u.).

Take “CTAATTGAATAATCAAAATTTTAATCTTTGGTCGATAATGCGGAGTCACCTAGTGCAG”: the binding signal is 63700 fluorescence intensity (a.u.).

“GGCATTTGATCTAATCCCATTTTGACGATGATATTATAACCGGAGTCACCTAGTGCAG”: the binding signal is 3500 fluorescence intensity (a.u.).

Turning to “TAAATTGAATTTAAACTTACATGTTTTCTAGACTAATATACGGAGTCACCTAGTGCAG”, the binding signal was 8580 fluorescence intensity (a.u.).

Take “TTTAATTAATCATGTGCTAATAACTTGTCTCGTTTGGTGTCGGAGTCACCTAGTGCAG”: the binding signal was 42900 fluorescence intensity (a.u.).

As for “TCTGATATTTGATAGTGACATTAATCAATCTTTACTCCATCGGAGTCACCTAGTGCAG”, the binding signal is 7140 fluorescence intensity (a.u.).

Consider “TCTACAAAATGATTAGTTTTAGATAAGCTGAACTTTAGAACGGAGTCACCTAGTGCAG”, for which the binding signal is 4530 fluorescence intensity (a.u.).

As to “AAGATAAATAAAATTAATGGTTAGAGGTTTTGTTGTCTCACGGAGTCACCTAGTGCAG”, the binding signal is 3410 fluorescence intensity (a.u.).

As to “ACCGTTGATTTAGAAAGGGGTTGAGGGGAGGGTAGTAGTACGGAGTCACCTAGTGCAG”, the binding signal was 17400 fluorescence intensity (a.u.).

With “GCACGTTAATTATGCATACAACAACAGTGATCCAAGTTAGCGGAGTCACCTAGTGCAG”, the binding signal is 17900 fluorescence intensity (a.u.).

On to “CATTAATTTGGAGTATTAAACATAGACTACTTACAAAACTCGGAGTCACCTAGTGCAG”, for which the binding signal was 14000 fluorescence intensity (a.u.).

On to “ATAGATTTTAGTTAGATGATGGTTGTCAATCTTCACTTGGCGGAGTCACCTAGTGCAG”, for which the binding signal was 11200 fluorescence intensity (a.u.).

Consider “TAGATGATTATTATGATAGGATTGATTTGTTTAGAGTCTTCGGAGTCACCTAGTGCAG”, for which the binding signal is 46100 fluorescence intensity (a.u.).

In the case of “ATACCTAATCAACGTGTCATTTTGTGCCCCTATCACGGAACGGAGTCACCTAGTGCAG”, the binding signal was 12100 fluorescence intensity (a.u.).

For the sequence “CGTTAACGTGAGCTATCAACAATCTATCACGTCACACTATCGGAGTCACCTAGTGCAG”, the binding signal is 6870 fluorescence intensity (a.u.).

With “TTTAATTTATCAGGTCTATCTGACTGTTCAGCACATACCACGGAGTCACCTAGTGCAG”, the binding signal was 17600 fluorescence intensity (a.u.).

As to “CATATTTGTACAAATTGACCACCAGAGCTCACACATTGATCGGAGTCACCTAGTGCAG”, the binding signal is 4710 fluorescence intensity (a.u.).

With “CTCACTTCCACTAATCACACTCTACAGTCTCACTCCTAGACGGAGTCACCTAGTGCAG”, the binding signal was 3600 fluorescence intensity (a.u.).

“GGACACCCCAATCAGACGTCAACTGTACACTGGAAACACCCGGAGTCACCTAGTGCAG”: the binding signal is 3290 fluorescence intensity (a.u.).

Consider “ATATTTAATTTGATACTACCTATAAACCGCACAAGCTGCACGGAGTCACCTAGTGCAG”, for which the binding signal is 16800 fluorescence intensity (a.u.).

Consider “TATGCTGATTGAAATCATTCCCATGCAAAAGGGTGCAGTGCGGAGTCACCTAGTGCAG”, for which the binding signal was 48000 fluorescence intensity (a.u.).

Turning to “TAGCGTATAATTAATTAAGTATCATTTATCTATATGTTTTCGGAGTCACCTAGTGCAG”, the binding signal is 23200 fluorescence intensity (a.u.).

As to “GAATATAATACAATTATAATGTAATTATAGTGTATACGTACGGAGTCACCTAGTGCAG”, the binding signal is 5420 fluorescence intensity (a.u.).

On to “AGCTAGCTAATTACATGTAAATTAGGGATTTGTTCTTGATCGGAGTCACCTAGTGCAG”, for which the binding signal was 22300 fluorescence intensity (a.u.).

On to “CACTGCTAAGTGAAGGTTAATTGGACGTAAAACTTGAAACCGGAGTCACCTAGTGCAG”, for which the binding signal was 4160 fluorescence intensity (a.u.).

In the case of “TTGATTAACATGATTCGTCGTAGGTGTTCAAGTACGCTGACGGAGTCACCTAGTGCAG”, the binding signal was 35000 fluorescence intensity (a.u.).

With “TGCCAGTGACAGCGTAATTAACGACTTAATCACACTGTTTCGGAGTCACCTAGTGCAG”, the binding signal was 28600 fluorescence intensity (a.u.).

Regarding “ATATTGTGATGTCTTATTGATATGACACCATAGACACTGCCGGAGTCACCTAGTGCAG”, the binding signal was 3330 fluorescence intensity (a.u.).

As for “GGCGTGTGATTTGGGCGGAGGGATCCGGCGATCTGGTTCTCGGAGTCACCTAGTGCAG”, the binding signal is 5540 fluorescence intensity (a.u.).

For “CTAAAATTAATCCTAAAATCAAAATCAACCTTAATGTAGTCGGAGTCACCTAGTGCAG”, the binding signal was 6850 fluorescence intensity (a.u.).

Take “TAGTAATTGATTGCTGCCAAGATTACATTACTGCCCAATACGGAGTCACCTAGTGCAG”: the binding signal was 65500 fluorescence intensity (a.u.).

Regarding “CTCGGTAAATTAAAACACTGGTCATCAAACGAGTCTTGAGCGGAGTCACCTAGTGCAG”, the binding signal was 3660 fluorescence intensity (a.u.).

For the sequence “ACGATTGGATTGGATTCGACTCGACTCAAGAAAAGAAAAGCGGAGTCACCTAGTGCAG”, the binding signal was 7300 fluorescence intensity (a.u.).

Turning to “ACTAATAGTAATTAGCTAGATGATTAACTAATTTACCTGGCGGAGTCACCTAGTGCAG”, the binding signal was 38700 fluorescence intensity (a.u.).

Take “TATATATATATATATATATATATATATATATGGTGGTGTTCGGAGTCACCTAGTGCAG”: the binding signal is 25600 fluorescence intensity (a.u.).

Turning to “AATTTGAGTGATTTTGTACATTAGATACCATGGTGCCCGGCGGAGTCACCTAGTGCAG”, the binding signal is 16800 fluorescence intensity (a.u.).

Consider “AATAATTCCGTGACTATAATTAGAAAATAATGGGCCTTAACGGAGTCACCTAGTGCAG”, for which the binding signal is 12900 fluorescence intensity (a.u.).

“ATTACGCTAATTGAGATGGACGTGCTATAAAATTTTCGAGCGGAGTCACCTAGTGCAG”: the binding signal was 29400 fluorescence intensity (a.u.).
